Out of some 310,000 compounds screened, about 14,000 (4.5%) showed an effect of 50% or more. The effect is printed as a negative number. This is one part of the list.
What follows are compounds tested against human ether-à-go-go-related gene (hERG) potassium channel (human, UniProt Q12809) (assay: primary screen, population patch clamp on CHO cells stably expressing hERG).
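Also: peak tail current of the secondary pulse compared with the same well before compound.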

human ether-à-go-go-related gene (hERG) potassium channel, sequence (Q12809 whole entry, looked up): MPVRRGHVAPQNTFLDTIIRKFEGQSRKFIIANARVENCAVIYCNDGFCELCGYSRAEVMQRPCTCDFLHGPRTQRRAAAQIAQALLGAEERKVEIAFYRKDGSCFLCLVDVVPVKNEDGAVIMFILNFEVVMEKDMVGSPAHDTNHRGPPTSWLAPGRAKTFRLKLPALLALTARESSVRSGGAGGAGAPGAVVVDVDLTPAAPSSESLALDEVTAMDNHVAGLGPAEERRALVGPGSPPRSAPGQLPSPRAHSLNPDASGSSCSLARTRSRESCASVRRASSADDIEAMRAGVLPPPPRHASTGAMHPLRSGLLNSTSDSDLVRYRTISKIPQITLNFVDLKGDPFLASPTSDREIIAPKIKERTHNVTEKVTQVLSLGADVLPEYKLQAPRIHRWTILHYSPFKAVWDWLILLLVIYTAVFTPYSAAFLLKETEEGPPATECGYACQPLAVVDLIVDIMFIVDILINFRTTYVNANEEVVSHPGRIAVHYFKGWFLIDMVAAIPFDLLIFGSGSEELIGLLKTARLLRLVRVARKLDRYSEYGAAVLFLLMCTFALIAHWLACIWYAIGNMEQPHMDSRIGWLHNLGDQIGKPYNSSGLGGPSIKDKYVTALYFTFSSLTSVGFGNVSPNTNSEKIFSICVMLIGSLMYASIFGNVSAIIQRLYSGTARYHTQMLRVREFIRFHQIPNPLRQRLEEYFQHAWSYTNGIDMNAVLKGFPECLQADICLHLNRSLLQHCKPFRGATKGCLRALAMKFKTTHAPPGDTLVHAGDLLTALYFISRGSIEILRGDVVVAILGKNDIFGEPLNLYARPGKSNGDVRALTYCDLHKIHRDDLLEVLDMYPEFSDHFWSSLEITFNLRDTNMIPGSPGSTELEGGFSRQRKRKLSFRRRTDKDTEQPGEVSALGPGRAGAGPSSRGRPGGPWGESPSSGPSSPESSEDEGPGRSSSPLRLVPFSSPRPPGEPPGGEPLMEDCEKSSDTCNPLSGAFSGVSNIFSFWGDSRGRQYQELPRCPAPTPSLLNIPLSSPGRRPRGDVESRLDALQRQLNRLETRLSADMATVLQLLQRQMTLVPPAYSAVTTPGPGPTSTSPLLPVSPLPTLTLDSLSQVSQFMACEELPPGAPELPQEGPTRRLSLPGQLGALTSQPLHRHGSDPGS

Structure (SMILES) | hERG current change (%, negative = inhibition) at 10uM [%]
COc1ccc(NC(=O)CCOc2ccccc2)c(OC)c1 | 1.87
CCCCOc1ccc(CN2CCSCC2)cc1 | 16
COc1cccc(COc2ccc3ccc(=O)oc3c2)c1 | 10.9
Cn1cccc1/C=C1\SC(=S)N(CC(=O)O)C1=O | 1.83
O=C(NCCCSc1ccccc1)c1cccnc1 | -6.81
COc1cc(C(=O)O)nc(OC)n1 | 20.7
Cc1onc(-c2ccccc2)c1C(=O)NC(=S)NNC(=O)c1cccnc1 | 6.64
COc1cc(OC)c(N(C)S(=O)(=O)c2cccc(C(=O)Nc3nc(C)cs3)c2)cc1Cl | -0.605
Cc1ccc(C)c(OCC(=O)NNC(=O)c2ccc(NC(=O)C3CC3)cc2)c1 | 13.8
CC1(C)C(c2cccs2)=[N+]([O-])C2(CCCCC/C2=N\NC(N)=O)N1O (centres unmarked) | 9.16
CC(C)NC(=O)c1ccccc1NC(=O)C1CC(=O)N(C(C)C)C1 (centres unmarked) | 42.9
O=C1CC2(CCN(C(=O)c3c(F)cccc3F)CC2)Oc2ccccc21 | -34.2
Fc1ccc(-n2nnc(-c3nccs3)n2)cc1 | 3.86
Cn1c(=O)cc(OCC(=O)NC2CCCCC2)c2ccccc21 | 4.48
Clc1ccccc1Nc1ncnc2c1nnn2Cc1ccccc1 | 4.81
CCOC(=O)c1c(NC(=O)CCc2ccc(CC)o2)sc(C)c1C | 1.97
COc1cccc(N2CCN(Cc3cccnc3)CC2)c1 | 12.7
COc1cc2c(cc1OC)C(C)N(C(=O)c1c(-c3ccccc3)noc1C)CC2 (centres unmarked) | 12
COc1ccc([C@@H]2CC(=O)c3c(O)cc(O)cc3O2)cc1O | 5.19
CC(=O)Nc1ccc(S(=O)(=O)N2CCN(C3CCCCCCC3)CC2)cc1.O=C(O)C(=O)O | -0.73

Structure (SMILES) | hERG current change (%, negative = inhibition) at 10uM [%]
CCn1c(SCC(=O)Nc2ccc(C)cc2)nc2nc3c(cc2c1=O)COC(C)(C)C3 | -81.8
CN1CCc2cc3c(c4c2C1Cc1ccccc1-4)OCO3 (centres unmarked) | -22.1
O=C(NCc1ccccn1)C1CCN(S(=O)(=O)c2cc(Cl)ccc2Cl)CC1 | 5.58
O=C(CCC(=O)N1CCOc2ccccc21)NCCCN1CCOCC1 | 5.91
CSC1=NC(C)(C)C=C(/C=C/c2c(Cl)cccc2Cl)N1 | 16.9
CCCn1c(SCC(=O)NC2CCCCC2)nnc1-c1ccccn1 | -2.79
O=C(O)c1cccc(CSc2nc(-c3ccc(Cl)cc3)cc(C(F)(F)F)n2)c1 | -0.199
CCOC(=O)COn1c(=O)c(-c2ccc(OCC)cc2)[n+]([O-])c2ccccc21 | 16.7
CC(=O)c1cccc(NC(=O)CCN2C(=O)C3C4CCC(C4)C3C2=O)c1 (centres unmarked) | -13.9
CCC(C)C(=O)Nc1ccc(OC)cc1OC (centres unmarked) | 13.6
COc1ccc2[nH]cc(C(=O)CN3CCCCC3)c2c1 | -8.72
COc1ccc(Br)cc1/C=N/NC(=O)c1ccc(OC)c(OC)c1 | 13.8
Cc1cc(C)c(NS(=O)(=O)c2ccc3c(c2)NC(=O)CC(=O)N3)c(C)c1 | 4.76
CSCCC(=O)N(C)CC1CCN(CCc2cccc(C(F)(F)F)c2)CC1 | -64.3
Cc1cccc(C)c1OCC(=O)N/N=C/c1cccnc1 | -5.76
C=CCn1c(N)c(C(=O)NCC2CCCO2)c2nc3ccccc3nc21 (centres unmarked) | -15.4
COc1ccc(-c2nn(-c3ccccc3)cc2C(=O)Nc2nccs2)cc1OC | -7.37
COc1ccc(C(=S)N2CCOCC2)cc1OC(=O)c1cc(OC)c(OC)c(OC)c1 | 16.2
Cc1noc(C)c1COC(=O)c1ccccc1Oc1ccccc1 | -2.58
CCCCC(=O)O[C@H]1CC[C@H]2[C@@H]3CCc4cc(O)ccc4[C@H]3CC[C@]12C | -4.31

Structure (SMILES) | hERG current change (%, negative = inhibition) at 10uM [%]
CCN(C(=O)COC(=O)c1cc(=O)[nH]c2ccccc12)C1CCS(=O)(=O)C1 (centres unmarked) | 15
CSc1nc(N)nc(C(C)C)n1 | -5.59
Cc1[nH]nc(N2CCCCCC2)c1[N+](=O)[O-] | 6.22
O=C(COc1ccc(C(=S)N2CCOCC2)cc1)N1CCOCC1 | 21.7
C=CCC1C=CCC(CC=C)N1C(=O)c1ccccc1[N+](=O)[O-] (centres unmarked) | -3.17
COc1ccc2c(c1)oc(=O)c1cc(OC)ccc12 | 16.5
COc1cc(/C=N/Nc2ccc(C(F)(F)F)cn2)ccc1O | -5.96
CCC(NC(=O)Nc1nnc(C(F)(F)F)s1)(C(F)(F)F)C(F)(F)F | -25.5
CC(C)(C)C1(C)OC(C(=O)NC2CCCCC2)C(C(=O)NC2CCCCC2)O1 (centres unmarked) | -11.7
O=C(NCc1ccccc1)N1CCC(CO)(Cc2cccc(F)c2)CC1 | -12.8
CC1CCN(C(C(=O)O)c2ccccc2)CC1.Cl (centres unmarked) | 15.8
O=C(NCc1ccc(F)cc1)c1cc(C(=O)C2CC2)c[nH]1 | -5.23
N/C(=N/[N+](=O)[O-])N1CCN(C(=O)c2ccc(Cl)cc2)CC1 | 8.11
COc1ccccc1NC(=O)CC1C(=O)NCCN1C(=O)Nc1ccc(Cl)c(Cl)c1 (centres unmarked) | 0.288
O=C(OCc1c(Cl)nc2sccn12)c1cc2c(s1)CCCC2 | 6.63
O=C(Nc1ccc2c(c1)OCO2)C1CCN(C(=O)CSc2ncnc3ccccc23)CC1 | -18.3
Cc1cccc(C)c1NC(=O)N1CCN(c2nc3ccccc3s2)CC1 | 6.3
CCOC(=O)c1cnc(SCc2nc(N)nc(Nc3ccc(F)cc3)n2)nc1N | -1.09
Cc1ccc(/C=C(/C#N)C(=O)NC(C)c2ccccc2)o1 (centres unmarked) | 3.51

Reference: publication PMC4336329 (PLoS ONE, 2015)
